Experimental data: patent US5084142A, “Separation of tertiary butyl alcohol from water by azeotropic or extractive distillation” (priority 1991, dated 1992)

How the values were obtained:
[1] = Azeotropic agents evaluated in vapor-liquid equilibrium still (separating water from t-butanol); type: physicochemical; details: for Relative Volatility: azeotropic agent, vapor-liquid equilibrium still, water as overhead
Description: (§1) The data listed in Tables 2 and 3 was obtained in a vapor-liquidequilibrium still. In every case, the starting material was the t-butyl alcohol-water azeorrope. The relative volatilities are listed for each of the agents.

[2] = Azeotropic distillation in 7.3 theoretical plate rectification column
[3] = Extractive agents evaluated in vapor-liquid equilibrium still (separating water from t-butanol); type: physicochemical; details: for Relative Volatility: extractive agent, vapor-liquid equilibrium still; for liquid composition, t-butyl alcohol / liquid composition, water / vapor composition, t-butyl alcohol / vapor composition, water: 80 g azeotrope, 30 g agent, fourteen hours (ethylene glycol phenyl ether) or one hour (dimethyl phthalate)
Description: as §1

[4] = Extractive distillation in 7.3 theoretical plate rectification column; details: for Relative Volatility (average for each theoretical plate): 7.3 theoretical plate column, extractive mode; for Relative Volatility (average for each theoretical plate) / Weight % Water, Bottoms / Weight % Water, Overhead / Weight % t-Butanol, Bottoms / Weight % t-Butanol, Overhead: 1,3-butanediol 2 hrs., triethylene glycol 1 hr.; for Weight % Water, Bottoms / Weight % Water, Overhead / Weight % t-Butanol, Bottoms / Weight % t-Butanol, Overhead: extractive
[5] = total reflux four hours (Example 5)
[6] = brings t-butanol out as overhead (*)
[7] = one hour, agent 15 ml/min, 85° C., reflux rate 40 ml/min (Example 6)
[8] = 30 grams agent, refluxed ten hours

## CCCCCCOC(C)=O [Hexyl acetate]
[1]
  Relative Volatility: 2.0

## C=COCCCC [Vinyl n-butyl ether]
[2]; 7.3 theoretical plate column, azeotropic mode, 9 hrs.
  Relative Volatility: 1.50
[2]; azeotropic, 9 hrs.
  Weight % Agent, Bottoms: 29.1 Weight %
  Weight % Agent, Overhead: 58.2 Weight %
  Weight % Water, Bottoms: 1.0 Weight %
  Weight % Water, Overhead: 9.1 Weight %
  Weight % t-Butanol, Bottoms: 69.9 Weight %
  Weight % t-Butanol, Overhead: 32.7 Weight %
[2]; [5]
  average relative volatility for each theoretical plate: 1.24
  liquid composition, t-butyl alcohol: 68.4%
  liquid composition, vinyl n-butyl ether: 29.5%
  liquid composition, water: 2.1%
  vapor composition, t-butyl alcohol: 31.0%
  vapor composition, vinyl n-butyl ether: 64.4%
  vapor composition, water: 4.6%

## CCCCC(=O)CC [3-Heptanone]
[3]; water as overhead
  Relative Volatility: 1.70

## CCCCCC(C)=O [2-Heptanone]
[1]
  Relative Volatility: 1.42

## OCCOc1ccccc1 [Ethylene glycol phenyl ether]
[3]
  liquid composition, t-butyl alcohol: 89.2%
  liquid composition, water: 10.8%
  vapor composition, t-butyl alcohol: 76.8%
  vapor composition, water: 23.3%
[3]; water as overhead
  Relative Volatility: 2.49

## CC(C)CC(=O)CC(C)C [Diisobutyl ketone]
[3]; water as overhead
  Relative Volatility: 1.42

## CC(C)CCCCCCCO [Isodecanol]
[3]; water as overhead
  Relative Volatility: 1.63

## COc1ccccc1 [Anisole]
[3]; water as overhead
  Relative Volatility: 1.31

## CCCCCC(=O)CC [3-Octanone]
[3]; water as overhead
  Relative Volatility: 2.0

## COC(=O)c1ccccc1C(=O)OC [Dimethyl phthalate]
[3]
  liquid composition, t-butyl alcohol: 80.3%
  liquid composition, water: 19.7%
  vapor composition, t-butyl alcohol: 85.2%
  vapor composition, water: 14.8%
[3]; [6]
  Relative Volatility: 1.41

## OCCOCCO [Diethylene glycol]
[3]; [6]
  Relative Volatility: 1.26

## CCCC(=O)OCC(C)C [Isobutyl butyrate]
[3]; water as overhead
  Relative Volatility: 1.22

## OCCCCO [1,4-Butanediol]
[3]; [6]
  Relative Volatility: 1.38

## CCOCCOCCOCC [Diethylene glycol diethyl ether]
[3]; water as overhead
  Relative Volatility: 1.44

## OCCOCCOCCO [Triethylene glycol]
[3]; [6]
  Relative Volatility: 2.33
[4]
  Relative Volatility (average for each theoretical plate): 1.235
  Weight % Water, Bottoms: 19.8 Weight %
  Weight % Water, Overhead: 5 Weight %
  Weight % t-Butanol, Bottoms: 80.2 Weight %
  Weight % t-Butanol, Overhead: 95 Weight %
[4]; [7]
  bottoms analysis, t-butyl alcohol: 80.22%
  bottoms analysis, water: 19.8%
  overhead analysis, t-butyl alcohol: 95%
  overhead analysis, water: 5%

## OC1CCCCCCCCCCC1 [Cyclododecanol]
[3]; water as overhead
  Relative Volatility: 1.47

## COC(=O)CCCCC(=O)OC [Dimethyl adipate]
[3]; [6]
  Relative Volatility: 1.21

## CCCCCCO [Hexyl alcohol]
[3]; water as overhead
  Relative Volatility: 1.70

## CCCC(=O)CC [3-Hexanone]
[3]; water as overhead
  Relative Volatility: 1.97

## CCCCOC(C)=O [n-Butyl acetate]
[3]; water as overhead
  Relative Volatility: 1.47

## CCCCCCC(C)O (stereo not shown) [2-Octanol]
[3]; water as overhead
  Relative Volatility: 1.47

## C=COCC(C)C [Vinyl isobutyl ether]
[1]; [8]
  liquid composition, t-butyl alcohol: 94.1%
  liquid composition, water: 5.1%
  vapor composition, t-butyl alcohol: 84.1%
  vapor composition, water: 15.9%
[1]
  Relative Volatility: 3.5

## CC(=O)CCC(C)C [Methyl isoamyl ketone]
[3]; water as overhead
  Relative Volatility: 1.61

## CC(=O)OCCOC(C)=O [Ethylene glycol diacetate]
[3]; water as overhead
  Relative Volatility: 1.23

## CC1=CC(=O)CC(C)(C)C1 [Isophorone]
[3]; water as overhead
  Relative Volatility: 1.54

## CC(O)CCO (stereo not shown) [1,3-Butanediol]
[3]; [6]
  Relative Volatility: 1.20
[4]
  Relative Volatility (average for each theoretical plate): 1.178
  Weight % Water, Bottoms: 15.6 Weight %
  Weight % Water, Overhead: 5.3 Weight %
  Weight % t-Butanol, Bottoms: 84.4 Weight %
  Weight % t-Butanol, Overhead: 94.7 Weight %

## CC(C)CC(O)CC(C)C [Diisobutyl carbinol]
[3]; water as overhead
  Relative Volatility: 1.94

## CC(CO)CO [2-Methyl-1,3-propanediol]
[3]; [6]
  Relative Volatility: 1.32

## CCCCC(=O)OCC [Ethyl n-valerate]
[3]; water as overhead
  Relative Volatility: 1.38

## CCCCCC(=O)OC [Methyl caproate]
[3]; water as overhead
  Relative Volatility: 2.07

## C[S+](C)[O-] [Dimethyl sulfoxide]
[3]; [6]
  Relative Volatility: 1.51

## CCCC(=O)OCC [Ethyl butyrate]
[3]; water as overhead
  Relative Volatility: 1.62

## CN(C)C=O [Dimethyl formamide]
[3]; [6]
  Relative Volatility: 1.35

## CC(O)c1ccccc1 (stereo not drawn) [alpha-Methyl benzyl alcohol]
[3]; water as overhead
  Relative Volatility: 1.36
